In all, about 150,000 compounds went through this assay and about 540 (0.36%) showed an effect of 50% or more. This is one part of the list. Where a SMILES comes first, the peptide text is derived from it. The star is where a group is joined. Cbz = O=C(OCc1ccccc1)*
test system: Plasmodium falciparum; experiment: Primary screen in NF54 nanoGlo assay, in single point, at 2uM, 72h; a lower Z score goes with more inhibition; assay type: functional, Erythrocyte; conditions: timepoint 72 hour

Question: How did the “% Inhibition” value turn out when `CC(=O)NCc1nnc(C(C)(C)C)s1` was run?
Answer: -8%

Question: And the Z score?
Answer: 0.81

Question: Which results are given for `Cc1ccc2c(c1)C(=O)N(CCC(=O)NCC1CCCCCCC1)C2=O`?
Answer: % Inhibition: -3%; Z score: 0.34

Question: Which results are given for `Cc1ccc(Cc2nnn(CC(=O)NC(C)C)n2)cc1`?
Answer: % Inhibition: -10%; Z score: 0.92

Question: `Clc1ccc(-c2csc3ncnc(N4CCc5ccccc54)c23)cc1` was tested. Which “% Inhibition” value did it give?
Answer: -5%

Question: And the Z score?
Answer: 0.45

Question: For `O=C(O)c1cnn(C2CCN(c3ncncc3-c3ccccc3)CC2)c1`, which “% Inhibition” value is on record?
Answer: -10%

Question: What about the Z score of the same compound?
Answer: 1.92

Question: With `Cn1nccc1C(=O)NC(C)(C)c1nc2c(c(C(N)=O)n1)OCCO2` as the compound, how does the “% Inhibition” value read?
Answer: -3%

Question: And the Z score?
Answer: 0.36

Question: What does the source list for `CCCN1CCN(C(=O)c2nnn([C@H]3CCNC3)c2C)c2ccc(F)cc21`?
Answer: % Inhibition: -18%; Z score: 2.37

Question: For `CCc1nc(-c2ccccc2)nc(N2CCN(C(=O)N(C)C)CC2)c1Cc1cccc(C)c1`, which “% Inhibition” value is on record?
Answer: -27%

Question: What about the Z score of the same compound?
Answer: 2.41

Question: Which results are given for `O=C(N[C@H]1CCN(Cc2noc(-c3ccccc3)n2)C1)c1ccoc1`?
Answer: % Inhibition: 0%; Z score: 0.03

Question: With `CC(=O)N(Cc1ccco1)c1ccc(C)cc1` as the compound, how does the “% Inhibition” value read?
Answer: -8%

Question: What about the Z score of the same compound?
Answer: 0.87

Question: With `Cc1ccc(CN2CCCN(c3ccc(NC(=O)c4cccs4)cc3)C2=O)cc1` as the compound, how does the “% Inhibition” value read?
Answer: -2%

Question: And the Z score?
Answer: 0.25

Question: Which “% Inhibition” value does the source give for `CC(C)c1ccoc1C(=O)N1CCC[C@H](N2CCCC2)CC1` here?
Answer: 4%

Question: And the Z score?
Answer: -0.61

Question: What does the source list for `Cc1ccccc1OCC(=O)NC[C@H](O)c1ccc(-c2cccs2)s1`?
Answer: % Inhibition: 4%; Z score: -0.56

Question: With `Cc1ccc(CNS(=O)(=O)c2cc3c(=O)n(C)nc(C)n3c2)o1` as the compound, how does the “% Inhibition” value read?
Answer: 2%

Question: What about the Z score of the same compound?
Answer: -0.26

Question: How did the “% Inhibition” value turn out when `c1cnc2nc(CN3CCC[C@H](c4nnc[nH]4)C3)nn2c1` was run?
Answer: -5%

Question: And the Z score?
Answer: 0.99

Question: With `O=S(=O)(c1ccc(F)cc1F)N1CCC2(CC1)Nc1ccc(Cl)cc1-n1cccc12` as the compound, how does the “% Inhibition” value read?
Answer: -12%

Question: And the Z score?
Answer: 1.6

Question: Which results are given for `Cc1ccc(-c2cc3c(=O)n(Cc4noc(CN5CCN(C(C)C)CC5)n4)ccn3n2)cc1`?
Answer: % Inhibition: -4%; Z score: 0.55

Question: With `CCN(CC(C)(C)O)C(=O)C1CC(C)(O)C1` (configuration not stated) as the compound, how does the “% Inhibition” value read?
Answer: -28%

Question: And the Z score?
Answer: 3.32

Question: Which results are given for `Cn1ncc2c1CCCN(S(=O)(=O)CC13CCC(CC1)C3)C2`?
Answer: % Inhibition: 0%; Z score: 0.01

Question: `C[C@H]1CN(C(=O)c2cc(O)nc3ccc(Br)cc23)CCN1` was tested. Which “% Inhibition” value did it give?
Answer: -5%

Question: And the Z score?
Answer: 0.54

Question: Which results are given for `CCOc1ccc(N2CCC(C(=O)NCc3ccccc3)CC2)nn1`?
Answer: % Inhibition: -13%; Z score: 1.63

Question: Which “% Inhibition” value does the source give for `CCCC1(C2CCN(C(=O)CC3=CCCCC3)CC2)NC(=O)N(CCC2CCCN2C)C1=O` (configuration not stated) here?
Answer: 8%

Question: What about the Z score of the same compound?
Answer: -1.17

Question: With `Cc1csc(NC(=O)CC[C@@H](C)[C@H]2CC[C@H]3[C@@H]4[C@H](O)C[C@@H]5C[C@H](O)CC[C@]5(C)[C@H]4C[C@H](O)[C@]23C)n1` as the compound, how does the “% Inhibition” value read?
Answer: -4%

Question: And the Z score?
Answer: 0.45

Question: With `Cc1ccc(C(=O)Nc2cccc(CCc3ccncc3)c2)cc1Cl` as the compound, how does the “% Inhibition” value read?
Answer: -9%

Question: And the Z score?
Answer: 1.15

Question: `CCn1c(CC2CCN(C(=O)c3n[nH]c4c3CCC4)CC2)nn(C)c1=O` was tested. Which “% Inhibition” value did it give?
Answer: -6%

Question: And the Z score?
Answer: 1.11

Question: For `CN1C(=O)CCN(C(=O)c2ccccc2OC2CC2)c2ccccc21`, which “% Inhibition” value is on record?
Answer: 1%

Question: What about the Z score of the same compound?
Answer: -0.15

Question: What does the source list for `Cc1ccc(CN2C(=O)C3CCCCC3C2=O)cc1S(=O)(=O)N1CCN(C2CCCCC2)CC1` (configuration not stated)?
Answer: % Inhibition: -19%; Z score: 2.56

Question: What does the source list for `CCN(C(=O)C1CCN(S(=O)(=O)c2ccc3c(c2)CCCN3C(=O)C2CCC2)CC1)c1ccccc1`?
Answer: % Inhibition: -19%; Z score: 3.66

Question: Which results are given for `C[C@H]1CN(C(=O)Nc2ccc3ccn(C)c(=O)c3c2)CCN1`?
Answer: % Inhibition: -11%; Z score: 2.33

Question: For `COc1cccc(NC(=O)Cn2c3ccccc3n3c(=O)cc(-c4cccc(OC)c4)nc23)c1`, which “% Inhibition” value is on record?
Answer: -11%

Question: And the Z score?
Answer: 1.2

Question: Which results are given for `CC(=O)N1CC[C@@](N)(C(=O)Nc2cnc3c(c2)CCCC3)C1`?
Answer: % Inhibition: 2%; Z score: -0.3

Question: `NC1(c2ccccc2)Cc2ccccc2C1` was tested. Which “% Inhibition” value did it give?
Answer: -7%

Question: What about the Z score of the same compound?
Answer: 0.94

Question: Which “% Inhibition” value does the source give for `COCCN1CCC[C@H](C(=O)Nc2c(C)c(C)cc3[nH]c(=O)[nH]c23)C1` here?
Answer: -5%

Question: And the Z score?
Answer: 0.89

Question: What does the source list for `CCCc1cc(C(=O)N(Cc2ccccc2)[C@H]2CCCC[C@@H]2O)[nH]n1`?
Answer: % Inhibition: -14%; Z score: 2.12

Question: Which results are given for `O=C1c2ccccc2C(=O)N1c1cc(C(F)(F)F)cc(N2C(=O)c3ccccc3C2=O)c1Cl`?
Answer: % Inhibition: -26%; Z score: 3.31

Question: What does the source list for `N#Cc1c(-c2cccnc2)cc(-c2ccc3ccccc3c2)[nH]c1=O`?
Answer: % Inhibition: 4%; Z score: -0.42

Question: What does the source list for `CC(=O)c1ccc(S(=O)(=O)N2C3CCC2CC(=C2CC2)C3)cc1`?
Answer: % Inhibition: 12%; Z score: -1.55

Question: Which “% Inhibition” value does the source give for `CCN1C(=O)C2(CCN(C(=O)COc3ccccc3)CC2)C[C@H]1C(=O)NCCOC` here?
Answer: 2%

Question: What about the Z score of the same compound?
Answer: -0.22

Question: Which “% Inhibition” value does the source give for `COc1ccc(CN2CCN(C(=O)NC3CCCC3)CC2)cn1` here?
Answer: -13%

Question: And the Z score?
Answer: 1.66

Question: What does the source list for `COC(=O)CNC(=O)[C@H](C)NC(=O)CNC(=O)OCc1ccccc1` (Cbz-Gly-Ala-Gly-OMe)?
Answer: % Inhibition: -3%; Z score: 0.38

Question: Which results are given for `CC1=CCN(C(=O)Nc2ccc(-c3nncn3C)cc2)CC1`?
Answer: % Inhibition: 11%; Z score: -1.52

Source: ChEMBL document CHEMBL4888484, “Replenishing the malaria drug discovery pipeline: Screening and hit evaluation of the MMV Hit Generation Library 1 (HGL1) against asexual blood stage Plasmodium falciparum ,using a nano luciferase reporter read-out” (2022)
